# Experimental data as given in PubChem BioAssay AID1745853 (National Center for Advancing Translational Sciences (NCATS), 2022).
# This is one part of the list. Further columns of the screen follow, without active or inactive calls.
# How the values were obtained:
# Assay in all cases: Primary Screen for Target Class Profiling of Small Molecule Inhibitors of Methyltransferases
# [1] = target: Glycine N-methyltransferase (Homo sapiens) (UniProt Q14749); settings: purified enzyme, MTase-Glo SAH luminescence; measured here: GNMT inhibition; at 40 µM; stronger effect = lower value
# How it was run: (§1)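 Each enzyme was reacted with SAM and its substrate, with compounds tested once at 40 uM; SAH formed was read by MTase-Glo luminescence.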
# [2] = target: Guanidinoacetate N-methyltransferase (Homo sapiens) (UniProt Q14353); settings: purified enzyme, MTase-Glo SAH luminescence; measured here: GAMT inhibition; at 40 µM; stronger effect = lower value
# How it was run: as §1
# [3] = target: Histamine N-methyltransferase (Homo sapiens) (UniProt P50135); settings: purified enzyme, MTase-Glo SAH luminescence; measured here: HNMT inhibition; at 40 µM; stronger effect = lower value
# How it was run: as §1
# [4] = target: Nicotinamide N-methyltransferase (Homo sapiens) (UniProt P40261); settings: purified enzyme, MTase-Glo SAH luminescence; measured here: NNMT inhibition; at 40 µM; stronger effect = lower value
# How it was run: as §1
# [5] = target: Phenylethanolamine N-methyltransferase (Homo sapiens) (UniProt P11086); settings: purified enzyme, MTase-Glo SAH luminescence; measured here: PNMT inhibition; at 40 µM; stronger effect = lower value
# How it was run: as §1
# % is scaled to controls: 0 for no effect and ±100 for the full control effect.
SMILES,"activity change, negative = inhibition [1] [%]","activity change, negative = inhibition [2] [%]","activity change, negative = inhibition [3] [%]","activity change, negative = inhibition [4] [%]","activity change, negative = inhibition [5] [%]"
Cc1nc(CCNC(=O)[C@H]2CCC[C@H](O)C2)nc2c1CCC2,-4.4,-0.894,-0.222,-1.49,-0.917
CN(C)C(=O)N1CCCn2nc(CNC(=O)C(=O)c3ccco3)cc2C1,-0.277,-1.73,1.04,-5.62,-4.51
C=CCN1CCN(C(=O)[C@@]23CCCC[C@H]2N(CCC(C)C)C(=O)CC3)CC1,-1.2,-0.692,1.05,1.42,4.49
COc1cc(Nc2nc3ccccc3nc2NS(=O)(=O)c2ccc(NC(=O)c3ccc(C)c(OC)c3)cc2)cc(OC)c1,3.77,-27.7,11.1,-43.9,-14.5
Cc1ccccc1-n1c(Cn2nc(-c3cccc(O)c3)c3c(N)ncnc32)nc2cccc(C)c2c1=O,-11.6,-0.897,-0.389,-50.4,-1.75
N=C(N)c1ccc2nc(-c3cc(CC(=O)NC(CC(=O)O)C(=O)O)cc(-c4cc(S(N)(=O)=O)ccc4O)c3O)[nH]c2c1 (configuration not stated),0.757,2.09,10.9,-13.3,3.47
O=C(CCCc1ccccc1)N1CCCCCC1c1nc(C2CC2)no1 (configuration not stated),-1.92,-4.08,0.355,-2.08,-1.82
CN(CCN1C(=O)c2cc3occc3n2CC1(C)C(=O)NC1CCCCC1)C1CCCCC1 (configuration not stated),5.87,0,4.53,7.12,6.21
Cc1ccc(-c2noc([C@@H]3Cc4nc[nH]c4CN3Cc3cccs3)n2)cc1,-11.3,-8.87,-20.3,-42.6,-2.52
COc1ccccc1-c1c[nH]c2ncc(-c3cncc(C(=O)N(C)C)c3)cc12,-21.3,-4.79,-29.1,-38.7,-15.2
CC(C)c1cc(CN2CCC(N3CCC(C(=O)NCc4ccccn4)CC3)CC2)[nH]n1,-3.2,-8.74,-8.51,-12.6,-4.34
O=C(N[C@@H]1CN(Cc2c[nH]c3ccccc23)C[C@H]1CO)c1ccccc1,-3.75,-2.32,-21.2,-8,19.2
Cn1cncc1CNC(=O)c1nc(-c2cccc(N3CCOCC3)c2)cc2c1ccn2C,-13.3,-6.63,-15.7,-8.48,-15.4
CC1(C)CC[C@]2(C(=O)O)CC[C@]3(C)C(=CCC4[C@@]5(C)C[C@@H](O)[C@H](O)C(C)(C)C5CC[C@]43C)C2C1 (some centres not stated),-5.96,–,11,–,–
COc1ccc(-c2nnn3c2nc(NCc2ccccc2Cl)c2ccccc23)cc1,2.24,5.62,7.63,1.53,1.9
Cc1ccccc1N1Cc2c(NC3CCCCCC3)ncnc2N(C)CC1=O,-7.7,-10.9,-1.52,-18.2,-2.05
O=C1CCc2cc(OCCCCc3nnnn3C3CCCCC3)ccc2N1,-6.11,6.23,2.41,-11.9,5.57
COC(=O)c1cc2n(n1)CC(C)(C(=O)NC1CCCCC1)N(c1ccc(Cl)cc1)C2=O (configuration not stated),-0.707,3.84,-0.141,4.82,2.69
CC(C)CNC(=O)c1ccc2c(=O)n(C(C)C)c3nn(Cc4ccc(F)cc4)c(=O)n3c2c1,-1.86,0,1.82,0.654,1.25
